Experimental data: PubChem BioAssay AID488969 (Vanderbilt High Throughput Screening Facility, 2010)
The full ranking holds about 110,000 compounds; the median of “z-score” is about -0.1, and the highest 2% start at about 2. The list shows a part of the results. Calls of active or inactive are those of the source.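 Rule for the calls: active = z-score in the third read window above 3 or below -3; inactive = the rest.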

These molecules were tested against Metabotropic glutamate receptor 8 (Rattus norvegicus) (UniProt P70579) (assay: rat mGluR8 modulators via GIRK flux, primary screen, cell-based, thallium flux, HTS (AID 488969)). Settings: HEK293 rat mGluR8, GIRK (G protein-gated inwardly rectifying potassium channel) thallium flux, FluoZin2; at 10 µM; stronger effect = higher value; submaximal glutamate (EC20) added with thallium.
Sequence of UniProt P70579 (P70579 whole entry, looked up): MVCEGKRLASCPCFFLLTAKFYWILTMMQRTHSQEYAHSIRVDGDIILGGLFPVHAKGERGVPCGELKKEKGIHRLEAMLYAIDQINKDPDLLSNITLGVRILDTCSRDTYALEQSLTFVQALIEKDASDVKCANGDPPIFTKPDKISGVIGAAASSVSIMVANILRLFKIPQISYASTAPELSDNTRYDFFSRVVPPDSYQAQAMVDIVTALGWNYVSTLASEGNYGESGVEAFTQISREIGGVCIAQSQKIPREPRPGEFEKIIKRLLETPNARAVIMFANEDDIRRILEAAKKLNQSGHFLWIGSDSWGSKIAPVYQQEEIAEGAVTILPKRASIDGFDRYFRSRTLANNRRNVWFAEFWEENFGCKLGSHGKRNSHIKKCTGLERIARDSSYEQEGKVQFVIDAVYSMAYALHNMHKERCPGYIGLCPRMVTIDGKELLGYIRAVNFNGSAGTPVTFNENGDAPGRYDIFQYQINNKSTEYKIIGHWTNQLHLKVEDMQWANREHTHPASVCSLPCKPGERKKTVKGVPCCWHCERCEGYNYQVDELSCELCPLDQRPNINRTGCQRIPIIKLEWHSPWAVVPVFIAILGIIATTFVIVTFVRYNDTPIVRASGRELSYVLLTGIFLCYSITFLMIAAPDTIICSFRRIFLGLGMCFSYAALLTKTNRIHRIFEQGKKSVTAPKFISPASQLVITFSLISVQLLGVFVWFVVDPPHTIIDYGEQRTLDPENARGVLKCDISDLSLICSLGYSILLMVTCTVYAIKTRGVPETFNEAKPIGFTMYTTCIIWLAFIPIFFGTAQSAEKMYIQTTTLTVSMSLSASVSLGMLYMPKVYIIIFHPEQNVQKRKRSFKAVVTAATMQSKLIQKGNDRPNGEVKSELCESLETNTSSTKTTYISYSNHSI

SMILES	z-score
CCOC(=O)C(NC(=O)Nc1ccc(Cl)cn1)(Oc1ccccc1)C(F)(F)F (stereo not drawn)	-0.558
COc1ccc(CCNC(=O)c2cc(=O)[nH]c3ccc(Br)cc23)cc1OC	0.0589
N#C/C(=C\c1ccc(/C=C(/C#N)c2nn(CCO)c(N)c2C#N)cc1)c1nn(CCO)c(N)c1C#N	0.333
O=C(O)/C(=C\c1ccco1)NC(=O)c1cccc2ccccc12	0.155
CCCc1cc2c(=O)n(NC(=O)c3nn(C)cc3[N+](=O)[O-])c(C)nc2s1	-0.136
CCN(CC)S(=O)(=O)c1cc([N+](=O)[O-])ccc1NNC(=O)Nc1ccc(F)cc1	0.544
Cn1cnnc1SC1CCCCC1NS(=O)(=O)c1ccccc1 (stereo not drawn)	0.0963
NC(=O)C1(N2CCCCC2)CCN(C(=O)c2ccc(C#Cc3ccccc3)o2)CC1	-0.104
Cc1csc(C(C#N)C(=O)c2ccc(S(=O)(=O)N3CCCC3)cc2)n1 (stereo not drawn)	0.626
N/C(=N\OC(=O)CCc1ccccc1)c1ccc(Cl)cc1	-0.162
COc1ccccc1C(=O)NCCCN1CCCC1=O	-0.389
C=CCOc1c(Br)cc(/C=N/n2c(CC)n[nH]c2=S)cc1Br	0.318
CCOc1ccc(N2CC(C(=O)Nc3ccc(N4CCOCC4)cc3)CC2=O)cc1 (stereo not drawn)	-0.107
Cc1cc(NC(=O)/C=C/c2ccccc2Cl)no1	-0.166
CCOc1cc(C(=O)N(C)Cc2cc3ccccc3[nH]c2=O)cc(OCC)c1OCC	-0.244
O=S(=O)(N1CCCCC1)N1CCNCC1	-0.187
CCC1(C(=O)OC)NC(c2ccco2)C2C(=O)N(c3ccc(C)cc3)C(=O)C21 (stereo not drawn)	-0.259
CC1CCc2ccc(F)cc2N1S(=O)(=O)c1cccs1 (stereo not drawn)	-0.186
O=[n+]1cc(-c2ccccc2)n([O-])c2c1CCCCC2	0.164
O=C(CSc1nnc(-c2ccncc2)o1)NCc1ccccc1	-0.00508
O=C(/C=C/c1cc([N+](=O)[O-])ccc1OC(F)F)Nc1cccc2ccccc12	0.12
O=S(=O)(c1cccc2nsnc12)N1CCc2ccccc21	-0.286

SMILES	z-score
COc1ccc(-c2nc3ccccn3c2NCc2ccc3c(c2)OCO3)cc1	-1.02
O=C(COC(=O)COc1cccc(Br)c1)Nc1c(Cl)cccc1Cl	-0.328
O=C1CCCC2=C1C(c1cn(-c3ccccc3)nc1-c1cccs1)c1c([nH]c(=O)[nH]c1=O)N2 (stereo not drawn)	-0.397
CCOc1ccc(C(=O)C2CCN(CC(=O)Nc3ccccc3N3CCOCC3)CC2)cc1	-0.217
O=C(/C=C/Nc1cccc(C(F)(F)F)c1)c1ccc(Oc2ncccn2)cc1	-0.244
COC(=O)c1cnn(-c2nc(OC)cc(OC)n2)c1C	-0.0792
CCOC(=O)C(C(=O)OCC)C(CC(=O)C1CC1)c1ccccc1 (stereo not drawn)	-0.144
COc1ccc(NC(=O)CN2CCN(c3ccccc3F)CC2)cc1	-0.481
CCNc1nc(NCC)n2c(SCc3nc4ccccc4c(=O)[nH]3)nnc2n1	-0.275
CCNC(=O)CN1C(=O)NC2(CCCc3cc(OC)ccc32)C1=O (stereo not drawn)	0.037
O=C1CC(c2ccc(F)cc2)SC(N(c2ccccc2)c2ccccc2)=N1 (stereo not drawn)	0.228
COC(=O)c1cc(NC2c3ccccc3C(=O)N2Cc2ccco2)cc(C(=O)OC)c1 (stereo not drawn)	0.42
O=C(NC(CSCc1ccccc1)C(=O)N/N=C/c1ccc(O)cc1O)c1ccc([N+](=O)[O-])cc1 (stereo not drawn)	-0.454
Cc1cccc(C(CC(=O)O)n2cccc2)c1 (stereo not drawn)	-0.29
CC(=O)c1c(C)[nH]c(C(=O)OCc2ccccc2)c1C	-0.337
O=C(CCN1c2ccccc2Sc2ccccc21)OCC(=O)N1CCN(C(=O)c2ccco2)CC1	0.364
COC(=O)c1cn[nH]c1NC(=S)Nc1ccc(Cl)c(Cl)c1	-0.0115
O=C(CC12CCC(CC1)C2)NCc1ccc2c(c1)OCO2	-0.246
O=C(CSc1nccn1-c1ccccc1)NCc1ccc2c(c1)OCO2	-0.394
Cc1ccc(S(=O)(=O)N2CCSC2)cc1C	-0.248
Cc1cccc(-n2c(Cn3nc(C)c([N+](=O)[O-])c3C)n[nH]c2=S)c1	0.621
CC(=O)/C(=N\Nc1ccccc1Cl)Sc1cccc2cccnc12	0.299

SMILES	z-score
Clc1ccc(-c2ccnc(Oc3ccc4ccccc4c3)n2)cc1	0.148
O=C(COc1ccc2c(c1)C(=O)CC1(CCCCC1)O2)NCc1ccccn1	-0.0332
O=C(NCc1ccco1)C1CCN(c2ccc(N3CCOCC3)nn2)CC1	0.321
CCc1nnc(NC(=O)CN2CCN(c3ccccc3OC)CC2)s1	-0.0727
O=C(Nc1ccc(Oc2ccccc2)cc1)C1CCN(c2c3c(nc4ncnn24)CCC3)CC1	-0.406
CCOC(=O)C1CCCCN1C(=O)CCc1c(C)nc2cc(-c3ccccc3)nn2c1C (stereo not drawn)	-0.526
CCOC(=O)N1CCN(C(=S)Nc2ccc3nc(N4CCN(CC)CC4)cc(C)c3c2)CC1	0.896
O=Cc1cn(CC(=O)NCC2CCCO2)c2ccccc12 (stereo not drawn)	-0.103
CCN(CCNC(=O)C1CCN(S(=O)(=O)CC)CC1)c1ccccc1	-0.121
O=C(N/N=C/c1cc2c(cc1[N+](=O)[O-])OCO2)c1ccccn1	-0.173
Cc1noc(NS(=O)(=O)c2ccc(NC(=O)CC34CC5CC(CC(Br)(C5)C3)C4)cc2)c1C	0.138
Cc1cccc(C(=O)Nc2sc(C(=O)N3CCCC3)c(C)c2C#N)c1	0.227
NC(=O)C1CCN(C(=O)Nc2ccccc2)CC1	-0.167
CC(C)n1c(-c2ccc(C(C)(C)C)cc2)n[nH]c1=S	active: 8.21
COc1ccccc1NC(=O)C1CC(=O)N(c2ccc(F)cc2)C1 (stereo not drawn)	-0.682
COC(=O)c1ccc(C)c(NC(=O)c2nn(C)c(=O)c3ccccc23)c1	-0.621
CCOC(=O)C1=C(C)N(C)C(=S)NC1c1ccccc1Cl (stereo not drawn)	-0.143
COc1ccccc1CNC(=O)CCN1C(=O)COc2ccccc21	-0.13
O=C(O)c1cc(=O)c2cc(Cl)ccc2o1	-0.147
Cn1c(N)c(C(=O)c2ccc(F)cc2F)c(=O)n(C)c1=O	0.167
O=C(CCCOc1ccccc1)NCc1ccco1	-0.205
O=C(CSc1nncn1-c1ccccc1)Nc1cc(Cl)cc(Cl)c1	-0.24

SMILES	z-score
COc1ccc(CCC(=O)Nc2ccc(C)c([N+](=O)[O-])c2)cc1	-0.401
Cc1ccc(-n2c(=O)[nH]cc(C(=O)N3CCc4ccccc43)c2=O)cc1C	0.0922
CCOC(=O)N1CCC(NC(=O)C2CCN(S(=O)(=O)c3c(C)noc3C)CC2)CC1	-0.144
CC(C)COC(=O)Nc1ccc(C(=O)O)cc1	0.11
O=C(CC1Oc2ccccc2NC1=O)NCc1ccc(Cl)cc1 (stereo not drawn)	-0.15
CC(/C=N/NC(=O)c1cc(-c2ccc(Cl)cc2)nc2ccccc12)=C\c1ccco1	0.0726
CC(=O)N1C(=O)C2(C(C#N)=C(N)Oc3cc(C)oc(=O)c32)c2ccccc21 (stereo not drawn)	0.149
COc1ccc(C2C(C(C)=O)=C(C)N=c3s/c(=C\c4ccc5c(c4)OCO5)c(=O)n32)c(OC)c1 (stereo not drawn)	-0.201
CC1CCCN(C(=O)CN2CCN(C(=O)c3ccco3)CC2)C1 (stereo not drawn)	0.124
O=C(CSc1nnc(-c2ccco2)o1)N1c2ccccc2CCc2ccccc21	-0.287
CC(C)COC(=O)Nc1nnc(SCCOc2ccccc2)s1	-0.414
CCCOc1ccc(C(=O)NNC(=S)NC(=O)c2cc(-c3ccc(Cl)cc3)nc3ccccc23)cc1	-0.0891
CCOc1ccc(S(=O)(=O)Nc2ccccc2SC)cc1	0.251
O=C(N/N=C/c1cn(-c2ccccc2)nc1-c1cc2ccccc2o1)c1cccnc1	0.0945
O=S(=O)(c1ccccc1Cl)N1CCC(O)(c2ccc3c(c2)OCO3)CC1	0.206
O=C(O)CCn1[nH]c(=O)ccc1=O	-0.273
COC(=O)c1nc2n(n1)C(c1ccc([N+](=O)[O-])cc1)C(C(=O)Nc1ccc(Cl)cc1)=C(C)N2 (stereo not drawn)	0.221
O=C(CCCn1c(=O)[nH]c2ccsc2c1=O)N1CCN(Cc2ccc3c(c2)OCO3)CC1	0.38
OC(COCc1ccccc1)CN1CCN(c2ccccc2F)CC1 (stereo not drawn)	0.0548
CCOc1[nH]n(-c2ccc(Cl)cc2)c(=O)c1C=Nc1ccc(OC)cc1	0.95
O=C(NCc1ccncc1)C1COc2ccccc2O1 (stereo not drawn)	-0.276
Cc1noc(C(=O)Nc2ccc3c(c2)OCO3)c1Cl	-0.183

SMILES	z-score
CCOC(=O)CCCNC(=O)CN1C(=O)NC2(CCCCCC2)C1=O	0.819
COC(=O)c1ccc(OC(=O)c2ccccc2F)cc1	0.198
CSc1nnc(-c2ccco2)c(-c2ccco2)n1	-1.36
O=[N+]([O-])c1ccc(C2CCCC/C2=N/OCc2ccc(F)cc2)c([N+](=O)[O-])c1 (stereo not drawn)	-0.208
COc1ccc(NC(=O)CCc2nc(-c3ccc(C)cc3)no2)cc1Cl	0.344
COCCCNC(=O)c1ccc([N+](=O)[O-])c(Cl)c1	-1.54
COc1cccc(C(=O)NNC(=O)c2ccccc2Br)c1	-0.445
CCOc1ccccc1NC(=O)CSc1nnnn1Cc1ccccc1	0.272
CC1CCN(S(=O)(=O)c2ccc3[nH]cc(C(=O)NCCN4CCOCC4)c(=O)c3c2)CC1	-0.272
Cc1occc1C(=O)NCc1cccc(CNC(=O)c2ccoc2C)c1	-0.164
Cc1nc2cc(Nc3nnc(-c4ccccc4)c4ccccc34)ccc2n1C	-0.174
Cc1csc2ncc(C(=O)NCCc3ccccc3)c(=O)n12	-0.247
c1cc(-c2noc(CCC3CCCC3)n2)ccn1	0.256
O=C(CSc1nc(O)cc(=O)[nH]1)N1CCCc2ccccc21	-0.65
c1csc(-c2csc(-c3cccs3)n2)c1	-0.241
CCCCOc1ccc(C(=O)Nn2c(-c3cccs3)nc3ccccc3c2=O)cc1	0.0501
O=C(NC(=S)Nc1ccc(NC(=O)c2cccs2)cc1)c1cc2ccccc2o1	0.0528
CC(C)COc1cccc(C(=O)Nc2ccc(S(=O)(=O)N3CCOCC3)cc2)c1	-0.473
COc1ccc(-n2c(C)c([N+](=O)[O-])c3ccc(O)c(CN4CCCCC4)c32)cc1	-0.457
CCN(CC)C1=N/C(=C\c2ccco2)C(=O)N1c1ccccc1	-0.386
